# Measurements reported in the supplement of paper PMC8728848.
# The list shows a part of the results.
# How the values were obtained:
# Assay in all cases: glycan array binding signal (z-score within array); higher = stronger binding
# Settings in all cases: glycan notation: IUPAC condensed, linker removed
# [1] = target: Neu5Ac(a2-6)Gal(b1-4)GlcNAc(b1-2)Man(a1-3)[Neu5Ac(a2-3)Gal(b1-4)GlcNAc(b1-2)Man(a1-6)]Man(b1-4)GlcNAc(b1-4)GlcNAc
# Outline: (§1)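 From the Consortium for Functional Glycomics database, 3228 arrays were curated, keeping only those whose protein sequence was available. Binding is given as a within-array Z-score averaged across arrays sharing a protein sequence and across linkers. Negative Z-scores can be read as non-binding.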
# [2] = target: Neu5Ac(a2-6)Gal(b1-4)GlcNAc(b1-2)Man(a1-3)[Neu5Ac(a2-6)Gal(b1-4)GlcNAc(b1-2)Man(a1-6)]Man(b1-4)GlcNAc(b1-4)GlcNAc
# Outline: as §1
# [3] = target: Neu5Ac(a2-6)Gal(b1-4)GlcNAc(b1-2)Man(a1-3)[Neu5Ac(a2-6)Gal(b1-4)GlcNAc(b1-2)Man(a1-6)]Man(b1-4)GlcNAc(b1-4)[Fuc(a1-6)]GlcNAc
# Outline: as §1
# [4] = target: Neu5Ac(a2-6)Gal(b1-4)GlcNAc(b1-2)Man(a1-6)Man(b1-4)GlcNAc(b1-4)GlcNAc
# Outline: as §1
# [5] = target: Neu5Ac(a2-6)Gal(b1-4)GlcNAc(b1-2)Man(a1-6)[Gal(b1-4)GlcNAc(b1-2)Man(a1-3)]Man(b1-4)GlcNAc(b1-4)GlcNAc
# Outline: as §1
# [6] = target: Neu5Ac(a2-6)Gal(b1-4)GlcNAc(b1-2)Man(a1-6)[GlcNAc(b1-2)Man(a1-3)]Man(b1-4)GlcNAc(b1-4)GlcNAc
# Outline: as §1
# [7] = target: Neu5Ac(a2-6)Gal(b1-4)GlcNAc(b1-2)Man(a1-6)[Man(a1-3)]Man(b1-4)GlcNAc(b1-4)GlcNAc
# Outline: as §1
# [8] = target: Neu5Ac(a2-6)Gal(b1-4)GlcNAc(b1-2)[Neu5Ac(a2-6)Gal(b1-4)GlcNAc(b1-4)]Man(a1-3)[GlcNAc(b1-4)][Neu5Ac(a2-6)Gal(b1-4)GlcNAc(b1-2)[Neu5Ac(a2-6)Gal(b1-4)GlcNAc(b1-6)]Man(a1-6)]Man(b1-4)GlcNAc(b1-4)GlcNAc
# Outline: as §1
# [9] = target: Neu5Ac(a2-6)Gal(b1-4)GlcNAc(b1-2)[Neu5Ac(a2-6)Gal(b1-4)GlcNAc(b1-4)]Man(a1-3)[GlcNAc(b1-4)][Neu5Ac(a2-6)Gal(b1-4)GlcNAc(b1-4)Man(a1-6)]Man(b1-4)GlcNAc(b1-4)GlcNAc
# Outline: as §1
# [10] = target: Neu5Ac(a2-6)Gal(b1-4)GlcNAc(b1-2)[Neu5Ac(a2-6)Gal(b1-4)GlcNAc(b1-6)]Man(a1-6)[Neu5Ac(a2-6)Gal(b1-4)GlcNAc(b1-2)Man(a1-3)][GlcNAc(b1-4)]Man(b1-4)GlcNAc(b1-4)GlcNAc
# Outline: as §1
# [11] = target: Neu5Ac(a2-6)Gal(b1-4)GlcNAc(b1-3)Gal(b1-3)GlcNAc
# Outline: as §1
# [12] = target: Neu5Ac(a2-6)Gal(b1-4)GlcNAc(b1-3)Gal(b1-4)GlcNAc
# Outline: as §1
# [13] = target: Neu5Ac(a2-6)Gal(b1-4)GlcNAc(b1-3)Gal(b1-4)GlcNAc(b1-2)Man(a1-3)[Neu5Ac(a2-6)Gal(b1-4)GlcNAc(b1-3)Gal(b1-4)GlcNAc(b1-2)Man(a1-6)]GalNAc
# Outline: as §1
# [14] = target: Neu5Ac(a2-6)Gal(b1-4)GlcNAc(b1-3)Gal(b1-4)GlcNAc(b1-3)Gal(b1-4)GlcNAc
# Outline: as §1
# [15] = target: Neu5Ac(a2-6)Gal(b1-4)GlcNAc(b1-3)Gal(b1-4)GlcNAc(b1-3)Gal(b1-4)GlcNAc(b1-2)Man(a1-3)[Neu5Ac(a2-6)Gal(b1-4)GlcNAc(b1-3)Gal(b1-4)GlcNAc(b1-3)Gal(b1-4)GlcNAc(b1-2)Man(a1-6)]GalNAc
# Outline: as §1
# [16] = target: Neu5Ac(a2-6)Gal(b1-4)GlcNAc(b1-3)Gal(b1-4)GlcNAc(b1-3)GalNAc
# Outline: as §1
# [17] = target: Neu5Ac(a2-6)Gal(b1-4)GlcNAc(b1-3)Gal(b1-4)GlcNAc(b1-3)[Neu5Ac(a2-6)Gal(b1-4)GlcNAc(b1-3)Gal(b1-4)GlcNAc(b1-6)]GalNAc
# Outline: as §1
# [18] = target: Neu5Ac(a2-6)Gal(b1-4)GlcNAc(b1-3)Gal(b1-4)GlcNAc(b1-6)[Gal(b1-3)]GalNAc
# Outline: as §1
# [19] = target: Neu5Ac(a2-6)Gal(b1-4)GlcNAc(b1-3)Gal(b1-4)[Fuc(a1-3)]GlcNAc(b1-3)Gal(b1-4)[Fuc(a1-3)]GlcNAc
# Outline: as §1
# [20] = target: Neu5Ac(a2-6)Gal(b1-4)GlcNAc(b1-3)GalNAc
# Outline: as §1
# [21] = target: Neu5Ac(a2-6)Gal(b1-4)GlcNAc(b1-3)[Neu5Ac(a2-6)Gal(b1-4)GlcNAc(b1-6)]GalNAc
# Outline: as §1
# [22] = target: Neu5Ac(a2-6)Gal(b1-4)GlcNAc(b1-6)GalNAc
# Outline: as §1
# [23] = target: Neu5Ac(a2-6)Gal(b1-4)GlcNAc(b1-6)[Gal(b1-3)GlcNAc(b1-3)]Gal(b1-4)Glc
# Outline: as §1
# [24] = target: Neu5Ac(a2-6)Gal(b1-4)GlcNAc(b1-6)[Gal(b1-3)]GalNAc
# Outline: as §1
# [25] = target: Neu5Ac(a2-6)Gal(b1-4)GlcNAc6S
# Outline: as §1
# [26] = target: Neu5Ac(a2-6)GalNAc
# Outline: as §1
# [27] = target: Neu5Ac(a2-6)GalNAc(b1-4)GlcNAc
# Outline: as §1
# [28] = target: Neu5Ac(a2-6)GalNAc(b1-4)GlcNAc6S
# Outline: as §1
# [29] = target: Neu5Ac(a2-6)GlcNAc(b1-4)GlcNAc
# Outline: as §1
# [30] = target: Neu5Ac(a2-6)GlcNAc(b1-4)GlcNAc(b1-4)GlcNAc
# Outline: as §1
binder,measurement,setting,value
PX9961C-bth-497-22-497 (Bacteroides thetaiotaomicron) (protein) DWLDLNTTSSVETGQAIVTLDDAQIALNGIYRLASGHSYYGDNYWYYGDCRAADVQARITKGDGKRVSPYYEYNVLASDNLNIVLPWNTVYKVIRQTNNLIQKIESGSIQSSDTKELNRIKSEALVMRGLSLFNLTRLFGMPYTNDKGASLGVPIETSPSDPTHKPSRSTVAQCYEQVVSDMSNALSGLRQETSNGYINYWAAQALLSRVYLNMGEYQKAYDAATDVIKNNGGRYQLYSYEEYPNVWGQDFQSESLFELYITLSEPSGGTGGEGAPMVYANEATVDWNNLILSEDFLNLLNEDPKDVRHCLTKESVIENNTGLPAAAMHEKVYLAKFPGKTGDDPKTNNICIIRLSEVYLNAAEAGLKKGTDIEEAQGYLNDIISRRTTDTSQQVSTETFTLDRILKERRKELVGEGEVFYDYLRNGLAIERKGSWHLETLKASNAQKIEATDLRIALPIPQSEIDANPNIQQNPR,glycan array binding signal (z-score),[1],0.593
same,glycan array binding signal (z-score),[2],-0.348
same,glycan array binding signal (z-score),[3],-0.505
same,glycan array binding signal (z-score),[4],0.089
same,glycan array binding signal (z-score),[5],-0.338
same,glycan array binding signal (z-score),[6],-0.282
same,glycan array binding signal (z-score),[7],0.075
same,glycan array binding signal (z-score),[8],0.274
same,glycan array binding signal (z-score),[9],0.553
same,glycan array binding signal (z-score),[10],0.254
same,glycan array binding signal (z-score),[11],-0.423
same,glycan array binding signal (z-score),[12],0.866
same,glycan array binding signal (z-score),[13],-0.197
same,glycan array binding signal (z-score),[14],-0.506
same,glycan array binding signal (z-score),[15],0.689
same,glycan array binding signal (z-score),[16],-0.389
same,glycan array binding signal (z-score),[17],0.127
same,glycan array binding signal (z-score),[18],0.239
same,glycan array binding signal (z-score),[19],0.365
same,glycan array binding signal (z-score),[20],-0.051
same,glycan array binding signal (z-score),[21],-0.532
same,glycan array binding signal (z-score),[22],-0.533
same,glycan array binding signal (z-score),[23],-0.065
same,glycan array binding signal (z-score),[24],0.076
same,glycan array binding signal (z-score),[25],-0.304
same,glycan array binding signal (z-score),[26],-0.449
same,glycan array binding signal (z-score),[27],-0.198
same,glycan array binding signal (z-score),[28],-0.05
same,glycan array binding signal (z-score),[29],-0.069
same,glycan array binding signal (z-score),[30],-0.152
